Each structure is given as a SMILES string. Screen size: about 310,000 compounds; about 2,200 (0.71%) showed an effect of 50% or more. The effect is printed as a negative number. The list shows a part of the results.

The target in this test is human ether-à-go-go-related gene (hERG) potassium channel (human, UniProt Q12809). Description: primary screen, population patch clamp on CHO cells stably expressing hERG.
Chain of human ether-à-go-go-related gene (hERG) potassium channel (Q12809 whole entry, looked up): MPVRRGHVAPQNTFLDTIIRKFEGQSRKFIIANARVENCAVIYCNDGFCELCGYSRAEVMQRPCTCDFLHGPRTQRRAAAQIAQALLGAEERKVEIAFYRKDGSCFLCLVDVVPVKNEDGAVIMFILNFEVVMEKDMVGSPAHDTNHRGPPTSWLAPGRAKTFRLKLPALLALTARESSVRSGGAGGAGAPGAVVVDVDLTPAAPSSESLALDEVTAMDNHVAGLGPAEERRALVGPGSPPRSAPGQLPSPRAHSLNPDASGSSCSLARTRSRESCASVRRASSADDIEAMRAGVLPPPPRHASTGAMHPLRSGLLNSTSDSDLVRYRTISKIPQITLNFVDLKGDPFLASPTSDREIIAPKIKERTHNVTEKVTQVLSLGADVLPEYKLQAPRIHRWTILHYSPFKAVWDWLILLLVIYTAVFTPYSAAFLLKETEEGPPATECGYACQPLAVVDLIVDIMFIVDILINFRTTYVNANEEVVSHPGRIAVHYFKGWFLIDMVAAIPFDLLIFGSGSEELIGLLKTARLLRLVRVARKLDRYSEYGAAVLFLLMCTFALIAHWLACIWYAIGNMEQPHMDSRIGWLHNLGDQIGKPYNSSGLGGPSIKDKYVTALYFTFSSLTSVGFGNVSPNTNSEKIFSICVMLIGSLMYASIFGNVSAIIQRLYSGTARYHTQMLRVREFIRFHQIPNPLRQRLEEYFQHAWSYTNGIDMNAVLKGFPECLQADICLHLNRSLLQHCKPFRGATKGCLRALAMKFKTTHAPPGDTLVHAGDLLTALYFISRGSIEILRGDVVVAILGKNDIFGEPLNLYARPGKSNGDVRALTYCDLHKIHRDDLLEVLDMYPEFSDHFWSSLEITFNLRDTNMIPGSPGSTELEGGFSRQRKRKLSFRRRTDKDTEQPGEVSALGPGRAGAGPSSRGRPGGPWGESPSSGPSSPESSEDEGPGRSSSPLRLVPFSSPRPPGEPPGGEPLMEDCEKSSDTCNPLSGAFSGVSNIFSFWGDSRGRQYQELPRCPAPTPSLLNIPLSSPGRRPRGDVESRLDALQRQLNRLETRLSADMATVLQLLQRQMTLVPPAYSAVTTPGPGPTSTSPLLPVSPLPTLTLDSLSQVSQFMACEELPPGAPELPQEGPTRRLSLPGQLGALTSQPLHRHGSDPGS
Take `CC(=O)c1ccc(OCc2cccc(C(F)(F)F)c2)cc1O`: the “hERG current change (%, negative = inhibition) at 1uM” value is 13.5%. On to `CC(C)N(C(=O)CSc1nc2c([nH]1)c(=O)n(C)c(=O)n2C)c1ccccc1`, for which the “hERG current change (%, negative = inhibition) at 1uM” value turned out to be 12.7%. Next, `NC(=O)c1cc([N+](=O)[O-])ccc1NCCN1C(=O)c2ccc(C(=O)O)cc2C1=O`: 13.4%; `CC(C)OC(=O)CC1C(=O)NCCN1C(=S)NC(=O)c1ccccc1Cl` (centres unmarked): 9.35%. The figure for `CC(C)C(=O)Nc1ccc2oc(=O)ccc2c1` is 13.6%. Next, `Cc1ccc(NC(=O)COC(=O)[C@H](C)NC(=O)c2ccccc2)cc1S(=O)(=O)N1CCOCC1`: 5.35%; `O=C(NCc1n[nH]c(=S)n1-c1ccc(F)cc1)c1ccc(S(=O)(=O)N2CCCC2)cc1`: 15.7%. Take `CCOc1ccc(-n2c(=O)c3sccc3n(CC(=O)NC3CCCCC3)c2=O)cc1`: the “hERG current change (%, negative = inhibition) at 1uM” value was found to be 16.8%. Next, `COc1ccc(-c2csc(N3CCN(Cc4ccc5c(c4)OCO5)CC3)n2)cc1`: 5.65%; `O=C(NNC(=S)Nc1cccc(Cl)c1)c1ccccc1OC(F)F`: 13.8%.

In the case of `COc1ccc(NC(=O)CCc2ccccc2)cc1S(=O)(=O)N1CCCCC1`, the “hERG current change (%, negative = inhibition) at 1uM” value worked out at 12.1%. The figure for `CC(C)(C)C(=O)NNC(=O)CCCOc1ccc(Cl)cc1Cl` is 15.6%. The figure for `Cc1ccc2nc(C)cc(Cl)c2c1` is 12.9%; for `CNC(=O)c1c[nH]n2c(=O)c(Cc3ccccc3F)c(C)nc12` it is 10.7%; for `O=C(NCCCN1CCOCC1)c1cc(S(=O)(=O)N2CCOCC2)c(Cl)cc1Cl` it is 11.2%. The figure for `CC1=C(C(=O)OCc2ccccc2)C(/C=C/c2ccccc2)NC(=S)N1` (centres unmarked) is 4.09%. On to `CCOC(=O)N1CCN(C(=O)c2ccccc2NC(=O)c2ccccc2Cl)CC1`, for which the “hERG current change (%, negative = inhibition) at 1uM” value is given as 10.4%. Next, `CCC(C)CCCCNC1=NCCS1` (centres unmarked): 10.9%.

Turning to `COC(=O)c1ccc2ccccc2n1`, the “hERG current change (%, negative = inhibition) at 1uM” value stood at 9.64%. Consider `CCCc1cc(=O)[nH]c(SCC(=O)c2cc(C)n(CC(F)(F)F)c2C)n1`, for which the “hERG current change (%, negative = inhibition) at 1uM” value turned out to be 9.55%. Next, `O=C(Nc1ccncc1)c1cccc(S(=O)(=O)N2CCN(c3ccc(F)cc3)CC2)c1`: -11.6%; `Cc1cc2c(c(=O)o1)C(C(C)C)C(C#N)=C(N)O2` (centres unmarked): 5.02%; `O=C(COC(=O)c1ccccc1NC(=O)c1ccco1)Nc1ccc2c(c1)OC(F)(F)O2`: 16.7%. The figure for `Cc1ccc(CNC(=O)c2ccc(NS(=O)(=O)c3cccs3)cc2)cc1` is 11.7%. Next, `CCc1nc2sc3ccccc3c(=O)c2c(=O)n1Cc1ccc(OC)cc1`: 11.4%; `Cc1cc(CSc2ccccc2)ccc1NC(=O)COc1ccccc1`: 12.6%. On to `COc1ccccc1Nc1nc(-c2sc(NC(=O)c3ccc([N+](=O)[O-])cc3)nc2C)cs1`, for which the “hERG current change (%, negative = inhibition) at 1uM” value is given as 6.62%. Next, `CC1CCN(CCCNC(=O)COc2cc(=O)n(C)c3ccccc23)CC1`: 7.37%; `CCOc1ccc(-n2c(SCC(=O)c3c(N)n(C)c(=O)n(C)c3=O)nnc2-c2cccnc2)cc1`: 5.4%; `COC(=O)c1ccc2c(c1)NC(=O)CS2`: 9.14%.

With `CC(NC(=O)C(=O)NN=C1CCCCCCCCCCC1)c1ccccc1` (centres unmarked), the “hERG current change (%, negative = inhibition) at 1uM” value turned out to be 12.7%. For `CCn1cc([N+](=O)[O-])c(C(=O)Nc2ccc(Cn3nc(C)cc3C)cc2)n1`, the “hERG current change (%, negative = inhibition) at 1uM” value was -8.43%. The figure for `CCSC1=C(C#N)C2(CCCC2)C(C#N)=C(N)N1` is -6.47%; for `COc1ccc(C(=O)OCCN2CCOCC2)cc1OC.Cl` it is 8.9%; for `O=C1ON=C(c2ccc([N+](=O)[O-])cc2)/C1=C/c1ccccc1O` it is 12.3%. Next, `CCOC(=O)c1c(NC(=O)c2cccc(N3C(=O)CCC3=O)c2)sc(C)c1C`: 5.3%; `Cc1c(C(=O)N/N=C/c2ccc(O)c(Br)c2)sc(N)c1C#N`: 5.36%. `Cn1cc(Cl)c(C(=O)NC2CCCC2)n1`: the “hERG current change (%, negative = inhibition) at 1uM” value is on record as 8.17%. Next, `CC(=O)Nc1ccc(-c2csc(NC(=O)C3CC(=O)N(c4ccc5c(c4)OCCO5)C3)n2)cc1` (centres unmarked): 8.25%; `Cc1ccc(OCCC(=O)OCC(=O)NC2CCS(=O)(=O)C2)cc1` (centres unmarked): 11.7%. The figure for `CCC(=O)Nc1ccc(N2CCN(S(C)(=O)=O)CC2)cc1` is 17.9%; for `Cn1ncc2c(NCc3ccccc3)ncnc21` it is 3.49%. The figure for `O=c1/c(=C/c2ccccc2)sc2nnc(-c3cccs3)n12` is 9.08%; for `CCN1/C(=C/c2ccc3cccc(C)c3[n+]2CC)Sc2ccccc21.[I-]` it is -76.4%.
